# Where “and” joins values, the source holds several entries; their conditions need not be identical. Equal values may be shown once. Where a name gives a salt, the structure may show the parent alone. ± gives the standard deviation of the averaged measurements. Whole data set: some 3,100 compounds, median “mean cytoplasmic OPP incorporation (global translation) relative to DMSO” near 100, cut for the lowest 2% near 56. Some of the results follow.
# Test system: U2OS
# Assay: mean cytoplasmic OPP incorporation (global translation) relative to DMSO (% of DMSO); higher = more protein synthesis
# Details: 10 µM; 24 h
# Description: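 Primary image-based screen in U2OS cells: compounds at 10 uM for 24 h, then a 1 h o-propargyl-puromycin (OPP) pulse, click labelling, and high-throughput microscopy. Mean cytoplasmic OPP intensity and nuclei count were normalised to DMSO wells within each plate (DMSO = 100) and averaged over triplicate plates.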
row,Compound,mean cytoplasmic OPP incorporation
1,CCN(CCCOc1ccc2c(Nc3cc(CC(=O)Nc4cccc(F)c4)[nH]n3)ncnc2c1)CCOP(=O)(O)O [Barasertib (AZD1152-HQPA)],112
2,Cc1ccccc1N=Nc1ccc(NC(=O)c2ccnn2C)c(C)c1,98.9
3,O=c1[nH]nc(Sc2ncc([N+](=O)[O-])s2)n1-c1ccc2c(c1)OCCO2,39.7 ± 16
4,NS(=O)(=O)c1cc2c(cc1Cl)NC(CC1CCCC1)NS2(=O)=O (configuration not stated) [Cyclopenthiazide],103
5,O=C(O)CCCCC1CCSS1 (racemic) [DL-?-Lipoic acid],117
6,CC(C)(C)NCC(O)c1cc(O)cc(O)c1 (configuration not stated) [Terbutaline hemisulfate],98.5
7,CCOC(=O)[N-]c1c[n+](N2CCOCC2)no1 [Molsidomine],104
8,CC[N+](CC)(CC)CCOc1cccc(OCC[N+](CC)(CC)CC)c1OCC[N+](CC)(CC)CC [Gallamine triethiodide],101
9,C#C[C@]1(O)CC[C@H]2[C@@H]3CCC4=C(CCC(=O)C4)[C@H]3CC[C@@]21C [Norethynodrel],95.7
10,C=C(c1ccc(C(=O)O)cc1)c1cc2c(cc1C)C(C)(C)CCC2(C)C [Bexarotene],107
11,CC(C(=O)O)c1ccc(C(=O)c2cccs2)cc1 (configuration not stated) [Suprofen],101
12,CN1CCN(c2nc(C3=C(c4c[nH]c5ccccc45)C(=O)NC3=O)c3ccccc3n2)CC1 [Sotrastaurin (AEB071)],103 ± 1.1
13,COc1cc2ncnc(Nc3ccc(F)c(Cl)c3)c2cc1OCCCN1CCOCC1 [Gefitinib (Iressa)],109
14,COc1cc2ncnc(Nc3ccc(F)c(Cl)c3)c2cc1OCCCN1CCOCC1 [Gefitinib],110
15,COc1cc2ncnc(Nc3ccc(F)c(Cl)c3)c2cc1OCCCN1CCOCC1 [Iressa],103
16,CN1CCC[C@@H]1CCO[C@](C)(c1ccccc1)c1ccc(Cl)cc1 [Clemastine fumarate],107 ± 12
17,CCOc1ccc(NC(C)=O)cc1 [Phenacetin],96.5
18,[O-][S+](c1ccccc1)c1ccc2nnnn2n1 (configuration not stated),92.2
19,O=C(c1ccc(OCCCc2c[nH]cn2)cc1)C1CC1 [Ciproxifan],97.8
20,CCN1CCC[C@H]1CNC(=O)c1c(O)c(Cl)cc(Cl)c1OC [Raclopride],102 ± 4.3
21,NC(N)=NCCC[C@H](NC(=O)[C@@H]1CCCN1C(=O)[C@H](N)Cc1ccccc1)C(=O)CCl,99.7
22,COC(=O)[C@]12CCC(C)(C)C[C@H]1[C@H]1C(=O)C=C3[C@@]4(C)C=C(C#N)C(=O)C(C)(C)[C@@H]4CC[C@@]3(C)[C@]1(C)CC2 [Bardoxolone Methyl],25.6
23,CCCCC[C@H](O)/C=C/[C@H]1[C@H](O)CC(=O)[C@@H]1CCCCCCC(=O)O [Alprostadil (Caverject)],108
24,CCCCC[C@H](O)/C=C/[C@H]1[C@H](O)CC(=O)[C@@H]1CCCCCCC(=O)O [Alprostadil],105 ± 5.9
25,O=C(O)c1cccnc1C(=O)O [Quinolinic acid],101
26,CC1(C)CNc2cc(NC(=O)c3cccnc3NCc3ccncc3)ccc21 [Motesanib Diphosphate],111

row,Compound,mean cytoplasmic OPP incorporation
1,CC1(C)CCC(C)(C)c2cc(C(=O)Nc3ccc(C(=O)O)cc3)ccc21,105 and 99.6
2,Oc1cc(O)c(Cl)cn1 [Gimeracil],96.1
3,COC(=O)C1=C(C)NC(C)=C(C(=O)OCC(C)C)C1c1ccccc1[N+](=O)[O-] (configuration not stated) [Nisoldipine],107
4,COC(=O)C1=C(C)NC(C)=C(C(=O)OCC(C)C)C1c1ccccc1[N+](=O)[O-] (configuration not stated) [Nisoldipine (Sular)],109
5,CN1CCN(c2c(F)cc3c(=O)c(C(=O)O)cn4c3c2SCC4)CC1 [Rufloxacin],105
6,CC(=O)N1CCN(C)CC1 [1-Acetyl-4-methylpiperazine hydrochloride],99.1
7,COc1ccc(C2CC(c3ccccc3)=NN2c2ccc(S(N)(=O)=O)cc2)cc1 (configuration not stated),102
8,CCCC(=O)[O-].[Na+] [Sodium butyrate],115
9,Cc1cc(Nc2cc(N3CCN(C)CC3)nc(/C=C/c3ccccc3)n2)n[nH]1,91.9
10,COCCOc1ccc2c(c1)ncn2-c1ccc2cccc(N3CCC(N)CC3)c2n1,74.5 ± 17
11,COC(=O)C1=C(C)NC(C)=C(C(=O)OCCN(C)Cc2ccccc2)C1c1cccc([N+](=O)[O-])c1 (configuration not stated) [Nicardipine hydrochloride],115
12,OC[C@H]1O[C@@H](c2ccc(Cl)c(Cc3ccc(O[C@H]4CCOC4)cc3)c2)[C@H](O)[C@@H](O)[C@@H]1O,92.9
13,"CC(C)NCC(O)c1ccc(O)c(O)c1 (single isomer, unassigned; (-)) [(-)-Isoproterenol hydrochloride]",111
14,O=C1C(O)=C([C@H]2CC[C@H](c3ccc(Cl)cc3)CC2)C(=O)c2ccccc21 [Atovaquone],102
15,Cc1ccc(/C=C2\CNC/C(=C\c3ccc(C)cc3)C2=O)cc1,93.2
16,Cc1ccccc1C(OCCN(C)C)c1ccccc1 (configuration not stated) [Orphenadrine hydrochloride],112
17,CCOC(=O)C1=C(C)NC(C)=C(C(=O)OCC)C1 [Diludin],106
18,CNCc1cc(-c2ccccc2F)n(S(=O)(=O)c2cccnc2)c1,106
19,CCCCCCCCCCCC1=C(O)C(=O)C=C(O)C1=O [Embelin],104
20,CN(C)CCOC(c1ccc(Cl)cc1)c1ccccn1 (configuration not stated) [Carbinoxamine maleate salt],93
21,CCCCCCCCCCCCCCCC(=O)C(F)(F)F,93.7
22,O=C1CCc2ccc(OCCCCN3CCN(c4cccc(Cl)c4Cl)CC3)cc2N1 [Aripiprazole],111
23,Nc1nc2c(ccc3ccccc32)s1,91.2
24,NC(=O)NC1NC(=O)NC1=O (configuration not stated) [Allantoin],98.1
25,CN(C)[C@@H]1C(O)=C(C(=O)NCNCCCC[C@H](N)C(=O)O)C(=O)[C@@]2(O)C(O)=C3C(=O)c4c(O)cccc4[C@@](C)(O)[C@H]3C[C@@H]12 [Lymecycline],100
26,CCCCCOC(=O)Nc1nc(=O)n([C@@H]2O[C@H](C)[C@@H](O)[C@H]2O)cc1F [Capecitabine (Xeloda)],99.7
